Data from article PMC12592532.
These are yes or no findings as the source states them, for the method shown. In cells and extracts the contact can be indirect.

Protein sequences, listed by entry. Tags and fused reporters are not part of them.
UniProt Q8N122: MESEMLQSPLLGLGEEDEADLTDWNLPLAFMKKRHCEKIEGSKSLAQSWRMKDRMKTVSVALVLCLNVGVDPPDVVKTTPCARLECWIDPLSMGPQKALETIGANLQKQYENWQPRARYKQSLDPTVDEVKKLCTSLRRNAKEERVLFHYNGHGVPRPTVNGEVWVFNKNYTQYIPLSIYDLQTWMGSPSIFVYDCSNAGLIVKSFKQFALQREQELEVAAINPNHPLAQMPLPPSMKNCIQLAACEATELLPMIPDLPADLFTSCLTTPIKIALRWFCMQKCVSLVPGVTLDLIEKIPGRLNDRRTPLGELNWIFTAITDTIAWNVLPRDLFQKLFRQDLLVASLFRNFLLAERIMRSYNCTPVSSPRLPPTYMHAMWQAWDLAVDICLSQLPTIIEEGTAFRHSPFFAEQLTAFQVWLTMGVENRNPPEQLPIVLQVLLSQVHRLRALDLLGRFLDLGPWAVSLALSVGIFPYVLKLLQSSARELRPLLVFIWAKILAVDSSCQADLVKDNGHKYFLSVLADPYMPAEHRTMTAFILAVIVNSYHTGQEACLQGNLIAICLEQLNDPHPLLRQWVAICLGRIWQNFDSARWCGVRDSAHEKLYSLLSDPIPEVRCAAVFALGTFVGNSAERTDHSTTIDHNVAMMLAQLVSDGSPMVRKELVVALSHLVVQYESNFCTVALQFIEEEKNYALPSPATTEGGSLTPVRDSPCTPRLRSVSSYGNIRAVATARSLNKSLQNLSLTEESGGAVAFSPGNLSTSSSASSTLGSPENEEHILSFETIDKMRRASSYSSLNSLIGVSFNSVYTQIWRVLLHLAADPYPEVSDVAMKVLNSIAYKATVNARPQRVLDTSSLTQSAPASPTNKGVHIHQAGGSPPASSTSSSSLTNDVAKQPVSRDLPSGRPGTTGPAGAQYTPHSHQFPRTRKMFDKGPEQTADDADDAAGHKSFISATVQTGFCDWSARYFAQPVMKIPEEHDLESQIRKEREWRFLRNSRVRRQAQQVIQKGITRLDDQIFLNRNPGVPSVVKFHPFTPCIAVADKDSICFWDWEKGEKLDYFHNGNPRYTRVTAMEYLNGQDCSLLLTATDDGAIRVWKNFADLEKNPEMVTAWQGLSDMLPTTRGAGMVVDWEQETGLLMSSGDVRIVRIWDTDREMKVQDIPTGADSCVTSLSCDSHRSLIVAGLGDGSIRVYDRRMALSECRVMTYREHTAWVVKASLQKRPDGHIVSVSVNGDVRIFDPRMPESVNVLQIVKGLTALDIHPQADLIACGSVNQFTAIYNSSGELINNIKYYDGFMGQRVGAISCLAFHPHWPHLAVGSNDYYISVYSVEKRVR

Biological target: T1, PTPN22 (protein tyrosine phosphatase non-receptor type 22) (human (endogenous in Jurkat, HEK293T, HeLa)) (UniProt Q9Y2R2)
T1 sequence: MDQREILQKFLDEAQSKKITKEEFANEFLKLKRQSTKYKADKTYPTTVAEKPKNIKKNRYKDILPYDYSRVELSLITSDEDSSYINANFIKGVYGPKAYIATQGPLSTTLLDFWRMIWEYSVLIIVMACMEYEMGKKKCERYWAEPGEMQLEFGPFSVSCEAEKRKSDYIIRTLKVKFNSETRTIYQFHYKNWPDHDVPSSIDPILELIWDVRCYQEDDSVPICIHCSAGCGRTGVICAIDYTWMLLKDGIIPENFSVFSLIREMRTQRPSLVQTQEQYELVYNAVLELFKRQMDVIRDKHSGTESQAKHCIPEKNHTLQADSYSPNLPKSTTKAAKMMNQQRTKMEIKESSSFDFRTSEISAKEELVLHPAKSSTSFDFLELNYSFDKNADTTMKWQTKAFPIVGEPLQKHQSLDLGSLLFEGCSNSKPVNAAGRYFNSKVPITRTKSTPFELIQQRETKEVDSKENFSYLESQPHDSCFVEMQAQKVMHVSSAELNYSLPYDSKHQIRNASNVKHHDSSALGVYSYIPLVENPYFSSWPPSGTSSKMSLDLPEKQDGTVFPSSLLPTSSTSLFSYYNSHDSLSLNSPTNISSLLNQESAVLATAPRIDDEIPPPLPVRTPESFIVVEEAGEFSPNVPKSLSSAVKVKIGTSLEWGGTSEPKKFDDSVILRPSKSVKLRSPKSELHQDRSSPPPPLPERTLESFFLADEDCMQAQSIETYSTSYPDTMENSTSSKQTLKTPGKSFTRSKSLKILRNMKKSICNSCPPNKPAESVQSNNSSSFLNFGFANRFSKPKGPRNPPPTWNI
Test: co-IP; endogenous proteins; Jurkat cells lysed in 0.3% CHAPS buffer; IP with control IgG or anti-PTPN22 antibody, immunoblot (Fig. 1B, 3B)

Q: Which binding does the source give for “RAPTOR (Regulatory associated protein of mTOR) (from UniProt Q8N122 1-1335)” here?
A: no binding
